Measurements taken from paper PMC5399170.
Results are given in words; binding and its absence hold for the method and conditions named. For part of these data: Binding seen in cells or lysates may run through a third protein. Some binding calls cover weakened binding; strength is not graded here. For part of these data: Where a sequence is shown, tags or fusion partners need not be part of it. Values belong to the molecule of their own block, whether it stands above or below them.

Protein sequences, listed by entry. Tags and fused reporters are not part of them.
UniProt O95863: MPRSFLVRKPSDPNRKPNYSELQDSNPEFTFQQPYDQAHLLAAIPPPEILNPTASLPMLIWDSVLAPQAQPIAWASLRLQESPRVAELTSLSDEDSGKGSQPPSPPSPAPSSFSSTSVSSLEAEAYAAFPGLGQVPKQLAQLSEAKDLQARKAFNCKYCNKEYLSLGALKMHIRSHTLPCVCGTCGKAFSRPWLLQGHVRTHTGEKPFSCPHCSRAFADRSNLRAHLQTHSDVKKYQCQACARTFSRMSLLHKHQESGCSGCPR
UniProt Q13547: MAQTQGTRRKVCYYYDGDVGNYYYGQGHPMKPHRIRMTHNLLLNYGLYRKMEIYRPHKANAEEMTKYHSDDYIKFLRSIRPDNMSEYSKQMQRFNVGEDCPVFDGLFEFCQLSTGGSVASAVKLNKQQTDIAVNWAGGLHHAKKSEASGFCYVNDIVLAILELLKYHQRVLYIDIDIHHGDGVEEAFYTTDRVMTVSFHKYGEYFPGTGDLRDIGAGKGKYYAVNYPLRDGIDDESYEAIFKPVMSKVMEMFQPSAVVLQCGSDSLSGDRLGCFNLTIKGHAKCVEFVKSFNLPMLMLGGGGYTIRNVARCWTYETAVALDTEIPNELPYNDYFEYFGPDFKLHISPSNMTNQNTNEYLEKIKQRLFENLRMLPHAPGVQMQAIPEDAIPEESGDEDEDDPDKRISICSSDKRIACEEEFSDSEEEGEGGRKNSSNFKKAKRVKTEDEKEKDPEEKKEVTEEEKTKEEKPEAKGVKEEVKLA

Assays:
[1] = target: T1, Flag-DACH1 (Dachshund homologue 1) (human) (UniProt Q9UI36); assay: co-IP; MCF-7 cells cotransfected with Flag-DACH1 and GFP-SNAI1 or HA-SNAI2; 24 h after transfection immunoprecipitation with anti-Flag or anti-HA antibody, western blot
T1 sequence: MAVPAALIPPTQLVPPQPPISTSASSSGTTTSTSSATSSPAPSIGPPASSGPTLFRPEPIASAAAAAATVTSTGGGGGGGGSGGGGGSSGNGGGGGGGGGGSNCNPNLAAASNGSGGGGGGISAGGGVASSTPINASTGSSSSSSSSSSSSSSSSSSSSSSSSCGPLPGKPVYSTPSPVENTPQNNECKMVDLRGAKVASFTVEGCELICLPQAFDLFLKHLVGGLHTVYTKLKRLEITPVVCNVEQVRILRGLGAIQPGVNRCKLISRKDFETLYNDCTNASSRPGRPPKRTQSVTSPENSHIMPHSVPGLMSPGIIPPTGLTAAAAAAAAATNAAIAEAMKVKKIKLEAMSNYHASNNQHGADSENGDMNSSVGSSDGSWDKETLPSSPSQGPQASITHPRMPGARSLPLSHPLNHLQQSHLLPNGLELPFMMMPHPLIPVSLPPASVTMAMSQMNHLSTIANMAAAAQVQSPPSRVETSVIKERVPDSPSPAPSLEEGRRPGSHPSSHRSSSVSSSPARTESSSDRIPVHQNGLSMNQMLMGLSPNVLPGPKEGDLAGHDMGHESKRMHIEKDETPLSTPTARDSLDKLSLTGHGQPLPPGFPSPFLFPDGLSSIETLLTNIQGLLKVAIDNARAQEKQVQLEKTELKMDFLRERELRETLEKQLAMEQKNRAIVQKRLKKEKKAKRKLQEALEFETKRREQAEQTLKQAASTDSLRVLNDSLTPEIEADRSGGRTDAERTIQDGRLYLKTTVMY

GFP-SNAI1 = GFP-SNAI1 (UniProt O95863); assay: co-IP; MCF-7 cells cotransfected with Flag-DACH1, GFP-SNAI1 or Myc-HDAC1; effect of DACH1 overexpression
GST-SNAI1 fusion protein = GST-SNAI1 fusion protein (UniProt O95863); assay: pull-down; purified GST-SNAI1 (bait) immobilised on the Pierce Spin Column; DACH1 as prey from MCF-7 cell lysate; only the target purified
[2] = target: endogenous SNAI1 (human (endogenous in MCF-7)) (UniProt O95863); assay: co-IP; endogenous proteins of MCF-7 cells; immunoprecipitation with anti-SNAI or anti-DACH1 antibody (anti-IgG control), western blot with anti-DACH1 or anti-SNAI antibody
pBIND-SNAI1 = pBIND-SNAI1 (UniProt O95863); assay: two-hybrid; mammalian two-hybrid (Checkmate, Promega) in MCF-7 cells; pACT-DACH1 and pBIND-SNAI1; luciferase measured 48 h after transfection, normalized against β-galactosidase
HA-SNAI2 = target: T2, HA-SNAI2 (UniProt O43623); assay: co-IP; MCF-7 cells cotransfected with Flag-DACH1 and GFP-SNAI1 or HA-SNAI2; 24 h after transfection immunoprecipitation with anti-Flag or anti-HA antibody, western blot
T2 sequence: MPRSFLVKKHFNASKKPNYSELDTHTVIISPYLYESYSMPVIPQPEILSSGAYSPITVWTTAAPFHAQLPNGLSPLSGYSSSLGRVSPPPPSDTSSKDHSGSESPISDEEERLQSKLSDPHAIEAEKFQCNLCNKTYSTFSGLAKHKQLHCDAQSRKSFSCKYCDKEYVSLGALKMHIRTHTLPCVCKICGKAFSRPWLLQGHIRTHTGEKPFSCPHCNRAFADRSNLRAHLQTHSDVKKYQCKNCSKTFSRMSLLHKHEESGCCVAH

Molecule: GFP-SNAI1 (from UniProt O95863 1-264)
binding [1]: binds

B2: pACT-DACH1 (protein, UniProt Q9UI36 1-758)
chain: MAVPAALIPPTQLVPPQPPISTSASSSGTTTSTSSATSSPAPSIGPPASSGPTLFRPEPIASAAAAAATVTSTGGGGGGGGSGGGGGSSGNGGGGGGGGGGSNCNPNLAAASNGSGGGGGGISAGGGVASSTPINASTGSSSSSSSSSSSSSSSSSSSSSSSSCGPLPGKPVYSTPSPVENTPQNNECKMVDLRGAKVASFTVEGCELICLPQAFDLFLKHLVGGLHTVYTKLKRLEITPVVCNVEQVRILRGLGAIQPGVNRCKLISRKDFETLYNDCTNASSRPGRPPKRTQSVTSPENSHIMPHSVPGLMSPGIIPPTGLTAAAAAAAAATNAAIAEAMKVKKIKLEAMSNYHASNNQHGADSENGDMNSSVGSSDGSWDKETLPSSPSQGPQASITHPRMPGARSLPLSHPLNHLQQSHLLPNGLELPFMMMPHPLIPVSLPPASVTMAMSQMNHLSTIANMAAAAQVQSPPSRVETSVIKERVPDSPSPAPSLEEGRRPGSHPSSHRSSSVSSSPARTESSSDRIPVHQNGLSMNQMLMGLSPNVLPGPKEGDLAGHDMGHESKRMHIEKDETPLSTPTARDSLDKLSLTGHGQPLPPGFPSPFLFPDGLSSIETLLTNIQGLLKVAIDNARAQEKQVQLEKTELKMDFLRERELRETLEKQLAMEQKNRAIVQKRLKKEKKAKRKLQEALEFETKRREQAEQTLKQAASTDSLRVLNDSLTPEIEADRSGGRTDAERTIQDGRLYLKTTVMY
binding (pBIND-SNAI1): binds

Further lines, results first:

binding (GFP-SNAI1): binds
Molecule: Myc-HDAC1 (from UniProt Q13547 1-482)

binding (GST-SNAI1 fusion protein): binds
binding [2]: binds
B1: endogenous DACH1 (protein, UniProt Q9UI36 1-758)
chain: MAVPAALIPPTQLVPPQPPISTSASSSGTTTSTSSATSSPAPSIGPPASSGPTLFRPEPIASAAAAAATVTSTGGGGGGGGSGGGGGSSGNGGGGGGGGGGSNCNPNLAAASNGSGGGGGGISAGGGVASSTPINASTGSSSSSSSSSSSSSSSSSSSSSSSSCGPLPGKPVYSTPSPVENTPQNNECKMVDLRGAKVASFTVEGCELICLPQAFDLFLKHLVGGLHTVYTKLKRLEITPVVCNVEQVRILRGLGAIQPGVNRCKLISRKDFETLYNDCTNASSRPGRPPKRTQSVTSPENSHIMPHSVPGLMSPGIIPPTGLTAAAAAAAAATNAAIAEAMKVKKIKLEAMSNYHASNNQHGADSENGDMNSSVGSSDGSWDKETLPSSPSQGPQASITHPRMPGARSLPLSHPLNHLQQSHLLPNGLELPFMMMPHPLIPVSLPPASVTMAMSQMNHLSTIANMAAAAQVQSPPSRVETSVIKERVPDSPSPAPSLEEGRRPGSHPSSHRSSSVSSSPARTESSSDRIPVHQNGLSMNQMLMGLSPNVLPGPKEGDLAGHDMGHESKRMHIEKDETPLSTPTARDSLDKLSLTGHGQPLPPGFPSPFLFPDGLSSIETLLTNIQGLLKVAIDNARAQEKQVQLEKTELKMDFLRERELRETLEKQLAMEQKNRAIVQKRLKKEKKAKRKLQEALEFETKRREQAEQTLKQAASTDSLRVLNDSLTPEIEADRSGGRTDAERTIQDGRLYLKTTVMY

binding (HA-SNAI2): no binding
B3: Flag-DACH1 (Dachshund homologue 1) (protein, UniProt Q9UI36 1-758)
chain: MAVPAALIPPTQLVPPQPPISTSASSSGTTTSTSSATSSPAPSIGPPASSGPTLFRPEPIASAAAAAATVTSTGGGGGGGGSGGGGGSSGNGGGGGGGGGGSNCNPNLAAASNGSGGGGGGISAGGGVASSTPINASTGSSSSSSSSSSSSSSSSSSSSSSSSCGPLPGKPVYSTPSPVENTPQNNECKMVDLRGAKVASFTVEGCELICLPQAFDLFLKHLVGGLHTVYTKLKRLEITPVVCNVEQVRILRGLGAIQPGVNRCKLISRKDFETLYNDCTNASSRPGRPPKRTQSVTSPENSHIMPHSVPGLMSPGIIPPTGLTAAAAAAAAATNAAIAEAMKVKKIKLEAMSNYHASNNQHGADSENGDMNSSVGSSDGSWDKETLPSSPSQGPQASITHPRMPGARSLPLSHPLNHLQQSHLLPNGLELPFMMMPHPLIPVSLPPASVTMAMSQMNHLSTIANMAAAAQVQSPPSRVETSVIKERVPDSPSPAPSLEEGRRPGSHPSSHRSSSVSSSPARTESSSDRIPVHQNGLSMNQMLMGLSPNVLPGPKEGDLAGHDMGHESKRMHIEKDETPLSTPTARDSLDKLSLTGHGQPLPPGFPSPFLFPDGLSSIETLLTNIQGLLKVAIDNARAQEKQVQLEKTELKMDFLRERELRETLEKQLAMEQKNRAIVQKRLKKEKKAKRKLQEALEFETKRREQAEQTLKQAASTDSLRVLNDSLTPEIEADRSGGRTDAERTIQDGRLYLKTTVMY
